Data as given in PMC2727002.
These are yes or no findings as the source states them, for the method shown. Binding seen in cells or lysates may run through a third protein. Some binding calls cover weakened binding; strength is not graded here. Tags and fused reporters may be left off the sequences shown.

Key:
[1] = molecular target: T1, Tap-tagged Rrp40 (yeast) (UniProt Q08285); assay: co-IP; 2 mg of extract of cells expressing a Tap-tagged protein incubated overnight at 4°C with protein G magnetic beads with or without antibody against CBP; 40 mM Hepes pH 7.5, 1 mM EDTA, 20% glycerol, 150 mM potassium acetate, 100 mM potassium chloride; wild-type, caf40Δ or not4Δ cells as named; western blot
T1 sequence: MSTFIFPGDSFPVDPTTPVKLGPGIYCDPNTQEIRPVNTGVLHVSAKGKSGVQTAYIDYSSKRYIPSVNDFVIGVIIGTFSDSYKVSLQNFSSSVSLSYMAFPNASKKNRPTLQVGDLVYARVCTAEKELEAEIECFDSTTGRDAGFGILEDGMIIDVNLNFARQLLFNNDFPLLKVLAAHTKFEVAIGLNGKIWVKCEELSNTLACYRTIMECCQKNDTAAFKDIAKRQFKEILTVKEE

[2] = molecular target: T2, Tap-tagged Rrp46 (yeast) (UniProt P53256); assay: as above
T2 sequence: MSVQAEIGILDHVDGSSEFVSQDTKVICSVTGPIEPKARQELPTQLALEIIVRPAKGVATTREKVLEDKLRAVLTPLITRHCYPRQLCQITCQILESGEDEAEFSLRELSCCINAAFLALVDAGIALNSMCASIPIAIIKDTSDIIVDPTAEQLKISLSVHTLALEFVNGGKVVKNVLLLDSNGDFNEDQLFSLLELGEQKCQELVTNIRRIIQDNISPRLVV

[3] = molecular target: T3, Tap-tagged Air2 (yeast) (UniProt Q12476); assay: as above
T3 sequence: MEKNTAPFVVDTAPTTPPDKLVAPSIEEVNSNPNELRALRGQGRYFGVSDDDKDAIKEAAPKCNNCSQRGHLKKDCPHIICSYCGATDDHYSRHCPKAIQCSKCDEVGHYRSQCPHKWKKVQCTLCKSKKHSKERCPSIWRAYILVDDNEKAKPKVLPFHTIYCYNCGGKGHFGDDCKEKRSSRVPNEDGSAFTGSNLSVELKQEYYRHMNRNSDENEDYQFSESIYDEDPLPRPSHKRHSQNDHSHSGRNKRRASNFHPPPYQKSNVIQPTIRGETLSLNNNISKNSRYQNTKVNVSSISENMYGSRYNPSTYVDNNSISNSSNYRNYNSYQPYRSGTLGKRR

[4] = molecular target: T4, Tap-tagged Mtr4 (yeast) (UniProt P47047); assay: co-IP; Tap-tagged Mtr4 or Tap-tagged Air1, polyclonal antibodies against the Ccr4-Not complex subunits; data not shown
T4 sequence: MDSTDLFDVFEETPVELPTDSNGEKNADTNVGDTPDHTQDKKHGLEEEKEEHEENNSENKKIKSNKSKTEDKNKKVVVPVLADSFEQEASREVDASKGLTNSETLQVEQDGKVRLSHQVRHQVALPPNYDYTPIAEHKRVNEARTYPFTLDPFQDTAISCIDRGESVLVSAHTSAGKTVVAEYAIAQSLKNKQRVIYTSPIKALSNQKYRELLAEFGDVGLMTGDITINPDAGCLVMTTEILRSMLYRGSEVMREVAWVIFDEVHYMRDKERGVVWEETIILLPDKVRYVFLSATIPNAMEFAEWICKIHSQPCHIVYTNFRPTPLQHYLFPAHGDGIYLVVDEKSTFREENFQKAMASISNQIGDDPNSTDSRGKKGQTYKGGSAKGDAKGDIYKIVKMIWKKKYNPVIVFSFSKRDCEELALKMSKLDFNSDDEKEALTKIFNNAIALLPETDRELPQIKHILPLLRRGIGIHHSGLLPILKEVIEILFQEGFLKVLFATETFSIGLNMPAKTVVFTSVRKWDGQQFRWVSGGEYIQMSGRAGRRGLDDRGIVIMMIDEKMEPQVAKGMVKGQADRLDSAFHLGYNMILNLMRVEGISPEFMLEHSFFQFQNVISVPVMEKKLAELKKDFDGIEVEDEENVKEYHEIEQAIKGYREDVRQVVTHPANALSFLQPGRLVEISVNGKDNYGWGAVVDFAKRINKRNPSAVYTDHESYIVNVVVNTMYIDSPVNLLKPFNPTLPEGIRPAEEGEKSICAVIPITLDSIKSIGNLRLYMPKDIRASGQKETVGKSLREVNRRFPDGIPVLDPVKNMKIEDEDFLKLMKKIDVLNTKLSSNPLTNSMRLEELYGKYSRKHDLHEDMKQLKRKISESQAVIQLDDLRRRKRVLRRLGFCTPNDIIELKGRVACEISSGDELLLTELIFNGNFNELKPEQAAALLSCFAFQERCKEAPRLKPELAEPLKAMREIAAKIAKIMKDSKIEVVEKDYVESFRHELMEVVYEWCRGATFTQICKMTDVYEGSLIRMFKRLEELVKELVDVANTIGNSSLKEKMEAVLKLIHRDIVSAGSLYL

[5] = molecular target: T5, Tap-tagged Air1 (yeast) (UniProt P40507); assay: as above
T5 sequence: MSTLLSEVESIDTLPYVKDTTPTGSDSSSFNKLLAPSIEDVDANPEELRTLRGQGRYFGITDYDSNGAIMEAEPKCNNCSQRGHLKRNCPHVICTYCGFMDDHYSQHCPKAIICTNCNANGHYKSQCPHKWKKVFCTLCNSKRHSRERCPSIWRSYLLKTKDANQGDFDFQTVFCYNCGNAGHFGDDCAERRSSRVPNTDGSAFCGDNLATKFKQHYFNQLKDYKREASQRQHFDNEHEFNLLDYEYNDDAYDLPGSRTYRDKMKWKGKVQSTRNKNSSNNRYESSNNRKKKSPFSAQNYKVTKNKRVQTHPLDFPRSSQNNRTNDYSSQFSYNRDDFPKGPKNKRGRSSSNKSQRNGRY

Measured: binding

B1: Not5 (protein, UniProt Q12514 1-560)
chain: MSQRKLQQDIDKLLKKVKEGIEDFDDIYEKFQSTDPSNSSHREKLESDLKREIKKLQKHRDQIKTWLSKEDVKDKQSVLMTNRRLIENGMERFKSVEKLMKTKQFSKEALTNPDIIKDPKELKKRDQVLFIHDCLDELQKQLEQYEAQENEEQTERHEFHIANLENILKKLQNNEMDPEPVEEFQDDIKYYVENNDDPDFIEYDTIYEDMGCEIQPSSSNNEAPKEGNNQTSLSSIRSSKKQERSPKKKAPQRDVSISDRATTPIAPGVESASQSISSTPTPVSTDTPLHTVKDDSIKFDNSTLGTPTTHVSMKKKESENDSEQQLNFPPDRTDEIRKTIQHDVETNAAFQNPLFNDELKYWLDSKRYLMQPLQEMSPKMVSQLESSLLNCPDSLDADSPCLYTKPLSLPHPTSIFFPNEPIRFVYPYDVPLNLTNNENDTDNKFGKDSKAKSKKDDDIYSRTSLARIFMKFDLDTLFFIFYHYQGSYEQFLAARELFKNRNWLFNKVDRCWYYKEIEKLPPGMGKSEEESWRYFDYKKSWLARRCGNDFVYNEEDFEKL
binds: all assays above
